# Assay results published in PubChem BioAssay AID588342 (National Center for Advancing Translational Sciences (NCATS), 2011).
# Hit rate of the full screen: of about 360,000 compounds, about 25,000 (6.9%) were called active. Inconclusive results, whose numbers are uncertain, are shown with a selection of clear calls. The call rests on the fitted dose curve; in most records, active means well fitted inhibition curve with a large enough effect; inconclusive means small, poorly fitted or top-dose-only effect; inactive means flat fitted curve, though single readings scatter. A potency beside an inconclusive call is a rough fit, not a confirmed value.
# Target: Luciferin 4-monooxygenase (Photinus pyralis) (UniProt P08659)
# Test: qHTS profiling assay for firefly luciferase inhibitor/activator using purifed enzyme and Km concentrations of substrates (counterscreen for miR-21 project); further: nearly all actives have a fitted effect of over 55% in size;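 on activity change, negative = inhibition: plate controls were vehicle for no effect and reference inhibitor for full effect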
# Conditions: purified FLuc, luminescence inhibition; series mostly up to 57.5 µM; activity change, negative = inhibition: at the top concentration
# In short: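 Purified P. pyralis luciferase (10nM final) with 10uM D-luciferin and 10uM ATP (Km levels) in 50mM Tris acetate pH 7.5, 10mM Mg acetate, 0.01% Tween-20, 0.05% BSA; qHTS 6-point titration, ~60 µM downward; luminescence read.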
# Potency means the concentration at half of the fitted maximal effect; tags describe the fitted curve by direction and shape.
# UniProt P08659, sequence (P08659 whole entry, looked up): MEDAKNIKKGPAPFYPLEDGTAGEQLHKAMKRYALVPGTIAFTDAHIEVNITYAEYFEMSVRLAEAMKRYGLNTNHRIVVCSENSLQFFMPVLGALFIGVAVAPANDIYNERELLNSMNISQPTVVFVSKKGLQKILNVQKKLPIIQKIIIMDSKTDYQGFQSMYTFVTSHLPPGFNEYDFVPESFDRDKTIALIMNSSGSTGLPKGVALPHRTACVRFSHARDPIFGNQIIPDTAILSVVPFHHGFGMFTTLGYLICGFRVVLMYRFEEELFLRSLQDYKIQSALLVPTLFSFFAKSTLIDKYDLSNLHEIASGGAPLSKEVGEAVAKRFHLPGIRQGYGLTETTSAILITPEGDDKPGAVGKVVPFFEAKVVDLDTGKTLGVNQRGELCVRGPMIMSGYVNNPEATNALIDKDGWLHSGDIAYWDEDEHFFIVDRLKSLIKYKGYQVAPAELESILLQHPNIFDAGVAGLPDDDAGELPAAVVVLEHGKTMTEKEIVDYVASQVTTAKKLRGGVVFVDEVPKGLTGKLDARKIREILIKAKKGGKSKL
SMILES,Potency,"activity change, negative = inhibition"
Cn1c(/C=C/c2ccccc2)nc2ccccc21,active: 0.135 µM,
COC(=O)c1ccc2c(CCO)c[nH]c2c1,active: 23.9 µM,
CCCN(CCC)CCCNC(=O)C1CCCN(S(=O)(=O)c2cccc3nsnc23)C1 (centres undefined),,inactive: 1.43%
CC(C)(C)c1ccc2c(c1)OC(C(=O)N/N=C\c1ccncc1)CO2 (centres undefined),"inconclusive: 19 µM [inhibitor, single point]",
Cc1ccc(CNC(=O)/C(C#N)=C\c2ccc(N(C)C)cc2)cc1,"inconclusive: 26.9 µM [inhibitor, single point]",
Cc1nnc(SCC(=O)Nc2nc(-c3ccc(F)cc3)cs2)[nH]c1=O,active: 16.9 µM,
CCOC(=O)c1cnc2c(N=Nc3ccccc3)c(N)nn2c1N,active: 0.953 µM,
Cc1ccc(NC(=S)NC(=O)c2sc3ccccc3c2Cl)c(C(=O)O)c1,active: 26.9 µM,
Cc1cc(C)c(OCC(=O)Nc2cccc(NC(=O)c3ccco3)c2)c(Br)c1,"inconclusive: 21.3 µM [inhibitor, partial curve, poor fit]",
COC(=O)c1nnn(-c2ccccc2)c1N,,inactive: 0.444%
Cn1sccc1=O,"inconclusive: 30.1 µM [inhibitor, partial curve, poor fit]",
Cc1ccc(C(=O)COC(=O)C(CC(C)C)NC(=O)C2CCC(C)CC2)cc1 (centres undefined),,inactive: -11.3%
CC(O)c1cccc(N=Cc2ccc3ccccc3c2O)c1 (centres undefined),active: 26.9 µM,
N#C/C(=C(/O)CN1CCOCC1)c1nc(-c2ccccc2)cs1,"inconclusive: 21.3 µM [inhibitor, partial curve, poor fit]",
O=C(/C=C/c1ccc(Br)cc1)c1ccco1,active: 3.38 µM,
Cc1cc(NS(=O)(=O)c2ccc(NC(=S)NC(=O)/C=C/c3ccccc3)cc2)no1,,inactive: -20.4%
CC(=O)Nc1oc(-c2cccc3ccccc23)nc1C#N,"inconclusive: 14.1 µM [inhibitor, partial curve, poor fit]",
Cc1cc(N2CCCCC2)nc2ccc(NC(=O)/C=C/c3ccccc3OC(C)C)cc12,,inactive: -0.75%
CCOC(=O)c1oc2cc(O)c(CC)cc2c(=O)c1-c1ccc2c(c1)OCCO2,"inconclusive: 37.9 µM [inhibitor, partial curve, poor fit]",
Cc1ccc2nc(NC(=O)C3CCCN3C(=O)OC(C)(C)C)sc2c1 (centres undefined),"inconclusive: 10.7 µM [inhibitor, partial curve, poor fit]",
Cc1nc(N2CCN(c3ccccn3)CC2)c2c(C)c(C(=O)Nc3ccc(F)cc3Cl)sc2n1,"inconclusive: 33.8 µM [inhibitor, partial curve, poor fit]",
CCOC(=O)N(NC(=O)C(O)(CC(C)C)CC(C)C)c1ccccc1,,inactive: 0.984%
Cc1cc(C)n(CCOC(=O)c2sc3ccccc3c2Cl)n1,active: 8.49 µM,
Cc1ccc(NC(=O)CCNC(=O)c2ccc(Cl)cc2)nc1,"inconclusive: 30.1 µM [inhibitor, partial curve, poor fit]",
CCOc1ccc(-c2nc(CSCC(=O)N3CCN(c4cccc(OC)c4)CC3)c(C)o2)cc1,active: 23.9 µM,

SMILES,Potency,"activity change, negative = inhibition"
Cc1ccccc1CNC(=O)Cn1ncn2nc(-c3cccs3)cc2c1=O,,inactive: -3.84%
COc1cc(/C=C2/C(=O)ON=C2C)cc(Cl)c1O,"inconclusive: 37.9 µM [inhibitor, partial curve, poor fit]",
Cc1c(C(=O)NCCc2ccc(Cl)cc2)sc2nc3n(c(=O)c12)CCC3,"inconclusive: 30.1 µM [inhibitor, partial curve, poor fit]",
Cc1ccccc1Nc1nnc(SCC(=O)NC(=O)Nc2ccc3c(c2)OCCO3)s1,"inconclusive: 19 µM [inhibitor, partial curve]",
S=C(NCCc1ccc(Cl)cc1)NC1CCCCC1,active: 19 µM,
Nc1nc(-c2ccc(F)cc2)cs1,"inconclusive: 21.3 µM [inhibitor, partial curve, poor fit]",
CN(C)c1cc(O)c(C(=S)Nc2ccccc2)c(N(C)C)c1,active: 23.9 µM,
O=C1N=C(N2CCCC2)S/C1=C\C=C\c1ccccc1,active: 0.849 µM,
O=C1c2ccccc2NC(c2ccc(F)cc2)N1Cc1ccccc1 (centres undefined),,inactive: 4.22%
CCCCNC(=O)Nc1ccccc1Br,"inconclusive: 26.9 µM [inhibitor, single point]",
O=C1/C(=C/c2ccc(O)cc2)SC(=S)N1Cc1cccnc1,,inactive: -4.71%
CC1CCCN(Cc2c(O)ccc3c(=O)c(-c4nc5ccccc5s4)c(N)oc23)C1 (centres undefined),active: 6.75 µM,
Cc1nnc(NC(=O)CSc2ncc(-c3ccccc3)[nH]2)s1,"inconclusive: 37.9 µM [inhibitor, single point]",
CCc1ccc(NC(=O)C2CCN(C(=O)N3CC(CC)Oc4ccccc43)CC2)cc1 (centres undefined),"inconclusive: 37.9 µM [inhibitor, partial curve, poor fit]",
C=CCn1c(C)cc(C(=O)COc2nncc3ccccc23)c1C,active: 15.1 µM,
O=C(/C=C/c1ccc2c(c1)OCO2)N1CCN(c2ccccc2F)CC1,"inconclusive: 33.8 µM [inhibitor, partial curve, poor fit]",
CCCCC(=O)Nc1ccc(C(=O)c2ccccc2)cc1,"inconclusive: 37.9 µM [inhibitor, single point]",
O=C(O)c1cccc(-n2nnnc2SCc2ccccc2Cl)c1,"inconclusive: 37.9 µM [inhibitor, single point]",
COc1ccc(Cc2c(O)nc(SCC(=O)NC(C)(C)C)[nH]c2=O)cc1,,inactive: 0.689%
Cc1ccc(C)c(OCc2nc(-c3cccnc3)no2)c1,"inconclusive: 30.1 µM [inhibitor, partial curve, poor fit]",
O=c1[nH]nc(SCc2nc3ccccc3s2)n1C1CC1,active: 23.9 µM,
O=C(Nc1ccc(F)cc1)[C@H](CSCc1ccccc1)N1Cc2ccccc2C1=O,,inactive: -8.49%
O=C(OCC(=O)c1c[nH]c2ccccc12)c1ccc([N+](=O)[O-])s1,"inconclusive: 21.3 µM [inhibitor, single point]",
CN(c1ccccc1)S(=O)(=O)c1ccc(Cl)c(C(=O)NCc2ccccc2CN2CCCC2)c1,,inactive: 2.88%
